Reference: PubChem BioAssay AID596 (National Center for Advancing Translational Sciences (NCATS), 2007)
Values joined by “and” are separate entries in the source; they are usually repeats but may differ in a detail not shown here. Equal entries are not always repeated. About 1,400 (2%) of roughly 71,000 compounds were called active. This list was built around the results that the source calls inconclusive (neither active nor inactive); the mix of calls is not that of the screen. Calls come from the whole dose curve; as a rule, active = well fitted curve in the direction sought with a large enough effect; inconclusive = small, poorly fitted or top-dose-only effect; inactive = no such curve, though single readings can be large or run the other way. Potencies of inconclusive entries are doubtful fits and often do not repeat. The source holds several records for some structures; these can differ, active in one and inactive in another.

Biological target: Microtubule-associated protein tau (Homo sapiens) (UniProt P10636)
Experiment: qHTS Assay for Tau Filament Binding;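 note: actives lower thioflavin S fluorescence by blocking filaments or displacing dye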
Settings: recombinant tau filaments, thioflavin S fluorescence, 15 h, filaments grown with octadecylsulfate alongside compound; series mostly up to 57.1 µM
How it was run: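 ThS-based fibril read: tau 1 uM final, inducer ODS 30 uM final, 37 C for 15 h, ex 450/em 510 nm.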
Potency is the fitted concentration of half-maximal effect.

UniProt P10636, sequence (P10636 whole entry, looked up): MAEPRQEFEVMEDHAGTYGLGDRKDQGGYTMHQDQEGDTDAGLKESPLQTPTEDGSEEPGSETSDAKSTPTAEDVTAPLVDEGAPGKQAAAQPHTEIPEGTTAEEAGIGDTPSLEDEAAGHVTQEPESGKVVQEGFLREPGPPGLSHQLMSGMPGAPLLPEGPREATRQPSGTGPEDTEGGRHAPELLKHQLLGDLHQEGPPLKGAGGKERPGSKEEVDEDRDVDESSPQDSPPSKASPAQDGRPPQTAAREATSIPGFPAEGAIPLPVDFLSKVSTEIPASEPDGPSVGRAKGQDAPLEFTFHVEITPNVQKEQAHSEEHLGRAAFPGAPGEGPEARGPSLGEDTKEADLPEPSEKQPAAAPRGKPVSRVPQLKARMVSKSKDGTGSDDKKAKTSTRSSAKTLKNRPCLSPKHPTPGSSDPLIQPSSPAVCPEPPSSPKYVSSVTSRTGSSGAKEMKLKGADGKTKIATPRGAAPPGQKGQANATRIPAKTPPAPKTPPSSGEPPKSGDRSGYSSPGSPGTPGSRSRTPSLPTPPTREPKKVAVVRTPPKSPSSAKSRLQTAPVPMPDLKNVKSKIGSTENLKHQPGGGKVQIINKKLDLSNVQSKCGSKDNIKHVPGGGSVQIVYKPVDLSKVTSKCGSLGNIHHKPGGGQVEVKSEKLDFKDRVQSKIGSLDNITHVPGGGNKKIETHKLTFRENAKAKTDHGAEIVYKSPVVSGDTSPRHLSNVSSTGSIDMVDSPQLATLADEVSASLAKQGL

| Structure (SMILES) | Potency |
| --- | --- |
| Cc1nc2cnc(N(C)C)nc2n(CCc2ccccc2)c1=O | inactive |
| CC(C)c1cccc2nc3c(c(C(C)(C)C)c12)Cn1c-3cccc1=O | inconclusive: 25.1 µM [decreasing] |
| Cc1ccc2nc(Nc3ncc4c(n3)CCCC4=O)nc(C)c2c1 | inconclusive: 39.8 µM [decreasing] |
| COc1ccc(NC(=O)c2ccc3c(=O)n(Cc4ccco4)c(=S)[nH]c3c2)c(OC)c1 | inconclusive: 39.8 µM [decreasing] |
| Nc1cc2c(nc3c4ccccc4c(N)cc3[n+]2-c2cccc3ccccc23)c2ccccc12 (tested in a mixture with another compound) | active: 0.631 µM |
| COc1ccc2c(=O)c3c(=O)n(Cc4ccco4)c(-c4cc(OC)c(OC)c(OC)c4)nc3oc2c1 | inactive |
| CCOc1ccc(C(=O)Nc2ccc(N3CCCC3)cc2)cc1 | active: 10 µM |
| Cn1c(=O)c(-c2ccc(Cl)cc2)nc2cncnc21 | inactive |
| CCCC(c1nnnn1Cc1ccc(OC)cc1)N1CCN(c2ccccc2OC)CC1 (stereo not drawn) | inactive |
| O=C(c1ccccc1)[C@@H]1O[C@H]1c1ccc(-c2ccccc2)cc1 | inconclusive: 39.8 µM [decreasing] |
| CCOC(=O)c1c(CN(C)C)oc2cc(CN(C)C)c(O)c(CSc3ccccc3)c12 | inconclusive: 0.398 µM [decreasing] |
| CN1CCc2ccccc2Cc2[nH]c3ccccc3c2CC1 | inconclusive: 39.8 µM [decreasing] |
| CCNC(=O)[C@@H]1O[C@@H](n2cnc3c(N)nc(NCCc4ccc(CCC(=O)O)cc4)nc32)[C@H](O)[C@@H]1O | inactive |
| O.O.O.O.O.O.O.O=S(=O)([O-])[O-].[Co+2] | active: 3.16 µM |
| COc1ccc(COn2c(=O)c(C)[n+]([O-])c3ccccc32)cc1OC | inactive |
| CCCCN1CCCCC1C(=O)Nc1c(C)cc(C)cc1C (stereo not drawn) | inconclusive: 31.6 µM [decreasing] |
| Cn1cnnc1SCC(=O)N1c2ccccc2-c2c(ssc2=S)C1(C)C | inconclusive: 12.6 µM [decreasing] |
| CN1CCC(=C2c3ccccc3CC(=O)c3sccc32)CC1 | inconclusive: 39.8 µM [decreasing] |
| COc1ccc(-c2c(C(F)(F)F)oc3c(CN4CCN(C)CC4)c(O)ccc3c2=O)cc1 | inconclusive: 39.8 µM [decreasing] |
| CCCn1c(CNc2ccccc2O)nc2ccccc21 | inconclusive: 25.1 µM [decreasing] |
| CCOC(=O)CN(C)Cc1c[nH]c2ccccc12 | inconclusive: 31.6 µM [decreasing] |

| Structure (SMILES) | Potency |
| --- | --- |
| Cc1ccc(C=Nc2ccc(N(C)C)cc2)o1 | inconclusive: 25.1 µM [decreasing] |
| COc1ccc(-c2ccc(=N)n(CCCC(=O)O)n2)cc1 | inconclusive: 39.8 µM [decreasing] |
| CCOCCCn1c(=N)c(C(=O)NCc2ccc3c(c2)OCO3)cc2c(=O)n3ccccc3nc21 | active: 5.01 µM |
| CN1CCN(C(=O)c2cc3nc(-c4ccc(F)cc4)cc(C(F)(F)F)n3n2)CC1 | inconclusive: 39.8 µM [decreasing] |
| COc1ccc(Oc2ncc3nc(-c4ccc(F)cc4)c(=O)n(C[C@H]4CCCO4)c3n2)cc1 | inconclusive: 31.6 µM [decreasing] |
| CCN(CC(=O)Nc1c(C(=O)OC)[nH]c2ccc(Cl)cc12)c1ccc2c(c1)OCO2 | inconclusive: 20 µM [decreasing] |
| CN1CCN(CCc2nc3cc(NC(=O)COc4ccccc4)ccc3n2C)CC1 | inactive |
| CCOC(=O)C1=C(CN2CCC(C)CC2)NC(=O)NC1c1ccc(Cl)cc1 (stereo not drawn) | active: 15.8 µM |
| CN(C)c1ncc2nc(-c3ccccc3)c(=O)n(Cc3cccs3)c2n1 | inactive |
| CCOc1ccccc1OCC(=O)Nc1ccc(N2CCCCC2)cc1 | active: 25.1 µM |
| CCCOC(=O)c1ccc(NC(=O)c2cnccn2)cc1 | inactive |
| Cc1nc(C)c(-c2csc(Nc3cccnc3)n2)s1 | inconclusive: 31.6 µM [decreasing] |
| Cc1cnc(CNc2ccnc(-c3ccccc3CN(C)C)n2)cn1 | inactive |
| COCCNc1nc(C)nc2c1nc(-c1ccccc1)n2C1CCN(Cc2ccccc2)C1 (stereo not drawn) | inactive |
| CCCCNC(=O)c1cc2c(=O)n3cccc(C)c3nc2n(CCN2CCOCC2)c1=N | inconclusive: 3.98 µM [decreasing] |
| Cn1ccnc1SCC(=O)Nc1sccc1C#N | inconclusive: 31.6 µM [decreasing] |
| O=C(CSc1ncnc2sc3c(c12)CCCCC3)NCc1ccco1 | inactive |
| C=C(C)COc1ccc2c3c(c(=O)oc2c1OCC(=C)C)CCC3 | inactive |
| Cc1cccc([C@@H]2CN(C)CCc3c2cc(O)c(O)c3Cl)c1 | inconclusive: 39.8 µM [decreasing] |
| CC(C)(Oc1ccc(Cl)cc1)C(=O)O | inconclusive: 39.8 µM [decreasing] |
| COc1cccc(-c2ccc3ncnc(NCc4ccc(OC)cc4OC)c3c2)c1 | inactive |

| Structure (SMILES) | Potency |
| --- | --- |
| CCOc1ccc(NC(=O)C2CCCN(S(=O)(=O)c3c(C)nn(C)c3C)C2)cc1 (stereo not drawn) | inconclusive: 25.1 µM [decreasing] |
| CCN1C(=O)/C(=C2/Sc3ccc(OC)cc3N2C)SC1=Nc1cccc(O)c1 | active: 3.16 µM |
| CCN(CC)c1nc(SCC(=O)O)nc(N(CC)CC)n1 | inconclusive: 0.794 µM [decreasing] |
| CC(=O)c1cccc(NC(=O)COc2ccc(S(=O)(=O)N3CCCCC3)cc2)c1 | inconclusive: 7.94 µM [decreasing] |
| C=C[C@@H]1CN2CC[C@@H]1C[C@H]2[C@H](O)c1ccnc2ccc(OC)cc12 | inconclusive: 39.8 µM [decreasing] |
| CCC(C)c1ccc(O)c(N)c1 (stereo not drawn) | inconclusive: 31.6 µM [decreasing] |
| O=c1c(-c2cccs2)nc2cnc(Oc3cccc(Cl)c3)nc2n1C[C@H]1CCCO1 | inactive |
| CC(C)COC(=O)C(C#N)c1nc2ccccc2nc1N1CCN(Cc2ccc3c(c2)OCO3)CC1 (stereo not drawn) | active: 2 µM |
| N#C/C(=C(/O)COC(=O)c1ccc2c(c1)OCCO2)c1nc2ccccc2[nH]1 | inconclusive: 12.6 µM [decreasing] |
| Cc1ccccc1CS(=O)(=O)Cc1ccc(C(=O)NCCCN2CCCC2=O)o1 | inactive |
| COC(=O)c1ccc(C(NC(=O)OCc2ccccc2)/C(C)=C/[C@@H](C)C(=O)Nc2ccc(OC)cc2)cc1 (stereo partly drawn) | inactive |
| COCCNC(=O)CSc1nc2ccc(N3CCOCC3)cc2c(=O)n1CCc1ccccc1 | inactive |
| COc1ccc(C(=O)Nn2c(SCC(=O)NCc3ccco3)nc3ccccc3c2=O)cc1 | inactive |
| COc1ccc2[nH]cc(CCNc3nc(-c4cccc(C#N)c4)nc4ccccc34)c2c1 | inconclusive: 5.01 µM [decreasing] |
| CC1(C)C(=O)NC2=C1C(=O)C(=O)c1ccccc12 | inconclusive: 39.8 µM [decreasing] |
| COC(=O)c1ccc(C(NC(=O)OCc2ccccc2)/C(C)=C/[C@@H](C)C(=O)NCc2nn(-c3ccccc3)nc2C)cc1 (stereo partly drawn) | inactive |
| NCC(=O)O | inconclusive: 39.8 µM [decreasing] |
| COc1cccc2c1[C@@H]1CN(CCCCn3c(=O)[nH]c4c(sc5ncc(-c6ccccc6)nc54)c3=O)C[C@H]1CO2 | inconclusive: 1.26 µM [decreasing] |
| CC(Oc1cccc(Cl)c1)C(=O)Nc1cc(=O)n(C)c(=O)n1C (stereo not drawn) | inconclusive: 3.98 µM [decreasing] |
| N=C1C=CC(=C(c2ccc(N)cc2)c2ccc(N)cc2)C=C1 | active: 631 nM and active: 1.26 µM |
| N#Cc1nc(COc2ccccc2)oc1N1CCOCC1 | inactive |

| Structure (SMILES) | Potency |
| --- | --- |
| O=C(Nc1ccc2nc(-c3cccs3)[nH]c2c1)c1ccco1 | inactive |
| O=C1CC(Nc2ccc(N3CCOCC3)cc2)C(=O)N1C1CCCCC1 (stereo not drawn) | inconclusive: 25.1 µM [decreasing] |
| O=S(=O)(c1ccccc1)N1CCC2(CCN(Cc3ccccc3)CC2)CC1 | inactive |
| CC(C)(O)c1cc(=O)sc2nc3ccccc3n12 | inactive |
| CCOC(=O)c1c(NC(=O)CN2CCOCC2)sc2c1CCCC2=O | inactive |
| Cc1nc(N)sc1-c1csc(Nc2ccccn2)n1 | active: 25.1 µM |
| CC1=C(SCCC#N)S/C(=C2\SC(C)=C(SCCC#N)S2)S1 | inconclusive: 39.8 µM [decreasing] |
| CN1CCN(C2=Cc3ccccc3Oc3ccc(Cl)cc32)CC1 | inconclusive: 39.8 µM [decreasing] |
| COc1ncc2nc(-c3ccccc3)c(=O)n(Cc3cccs3)c2n1 | inconclusive: 39.8 µM [decreasing] |
| CN1CCc2cccc3c2[C@H]1Cc1ccc(O)c(O)c1-3 | inconclusive: 39.8 µM [decreasing] |
| CC(=O)OCCNC(=O)c1cccnc1 | inconclusive: 39.8 µM [decreasing] |
| O=C(CSc1nnc(-c2cccs2)n1CC1CCCO1)c1cc2ccccc2o1 (stereo not drawn) | active: 15.8 µM |
| CCOc1ccc(NC(=O)c2ccccc2CO)cc1 | inactive |
| N#CCCn1c(=O)c(-c2ccc(Cl)cc2)nc2cnc(Nc3ccccc3)nc21 | inactive |
| CC(=O)N1CCN(c2ccc(NC(=O)c3ccc(C(C)(C)C)cc3)cc2)CC1 | inconclusive: 15.8 µM [decreasing] |
| COC(=O)CNC(=O)C1(C)C=CC2(CCCCC2)N1C(C)=O (stereo not drawn) | inactive |
| CS(=O)(=O)N1CCCC(C(=O)NCc2ccc(F)cc2Cl)C1 (stereo not drawn) | inactive |
| N#C/C(=C\c1cccs1)Sc1nc2ccccc2s1 | inconclusive: 15.8 µM [decreasing] |
| CC(C)NC[C@H](O)COc1ccc(CC(N)=O)cc1 | inconclusive: 39.8 µM [decreasing] |
| c1ccc(-c2cn3c4c(sc3n2)CCCC4)cc1 | inactive |
